# This is one part of the list. The list includes weakly bound sequences.
# Target: T1, MBP-FoxP3dN (UniProt Q99JB6)
# T1 sequence: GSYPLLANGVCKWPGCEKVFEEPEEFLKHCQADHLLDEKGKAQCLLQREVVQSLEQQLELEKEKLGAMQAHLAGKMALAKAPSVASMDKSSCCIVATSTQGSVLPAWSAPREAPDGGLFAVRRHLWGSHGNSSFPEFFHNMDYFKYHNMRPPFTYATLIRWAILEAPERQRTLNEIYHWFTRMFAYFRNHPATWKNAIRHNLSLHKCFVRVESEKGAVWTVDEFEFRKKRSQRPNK
# Assay: PD-seq (MBP pull-down with sequencing)
# Settings: 20 mM Tris-HCl pH 7.5, 100 mM NaCl, 1.5 mM MgCl2, 0.4 uM protein, 0.1 uM dsDNA library, 30 min, room temperature, amylose pull-down; high values mean tight binding; double strand, one strand shown
row,Sequence,binding signal (RPM ratio (pull-down/input))
1,GATGATTGTTCTCCCAGCTGATGAATTGGTTCTCTCGAGTAAACAAATTTTCCTAATCTTTCTGTTCAAGCGCCATCTAC,0.342
2,GATGATTGTTCTCCCAGCTGATGAATTAGCAAGCTCGAGTAAACAAATTTTCCTAATCTTTCTGTTCAAGCGCCATCTAC,0.439
3,GATGATTGTTCTCCCAGCTGATGAATTATTGAAGTCGAGTAAACAAATTTTCCTAATCTTTCTGTTCAAGCGCCATCTAC,0.302
4,GATGATTGTTCTCCCAGCTGATGAATTGAACTAGTCGAGTAAACAAATTTTCCTAATCTTTCTGTTCAAGCGCCATCTAC,0.25
5,GATGATTGTTCTCCCAGCTGATGAATTGTGCGTGTCGAGTAAACAAATTTTCCTAATCTTTCTGTTCAAGCGCCATCTAC,6.18
6,GATGATTGTTCTCCCAGCTGATGAATTAGTAGTCTCGAGTAAACAAATTTTCCTAATCTTTCTGTTCAAGCGCCATCTAC,2.08
7,GATGATTGTTCTCCCAGCTGATGAATTCGCTCCTTCGAGTAAACAAATTTTCCTAATCTTTCTGTTCAAGCGCCATCTAC,0.305
8,GATGATTGTTCTCCCAGCTGATGAATTAAGTCTGTCGAGTAAACAAATTTTCCTAATCTTTCTGTTCAAGCGCCATCTAC,0.462
9,GATGATTGTTCTCCCAGCTGATGAATTGGCGTCATCGAGTAAACAAATTTTCCTAATCTTTCTGTTCAAGCGCCATCTAC,1.18
10,GATGATTGTTCTCCCAGCTGATGAATTAACGCGCTCGAGTAAACAAATTTTCCTAATCTTTCTGTTCAAGCGCCATCTAC,0.631
11,GATGATTGTTCTCCCAGCTGATGAATTCCGATAGTCGAGTAAACAAATTTTCCTAATCTTTCTGTTCAAGCGCCATCTAC,0.601
12,GATGATTGTTCTCCCAGCTGATGAATTTTGCCTATCGAGTAAACAAATTTTCCTAATCTTTCTGTTCAAGCGCCATCTAC,2.85
13,GATGATTGTTCTCCCAGCTGATGAATTCAACCCGTCGAGTAAACAAATTTTCCTAATCTTTCTGTTCAAGCGCCATCTAC,0.238
14,GATGATTGTTCTCCCAGCTGATGAATTATCAACGTCGAGTAAACAAATTTTCCTAATCTTTCTGTTCAAGCGCCATCTAC,0.386
15,GATGATTGTTCTCCCAGCTGATGAATTCTTAGGCTCGAGTAAACAAATTTTCCTAATCTTTCTGTTCAAGCGCCATCTAC,0.259
16,GATGATTGTTCTCCCAGCTGATGAATTGCAAATTTCGAGTAAACAAATTTTCCTAATCTTTCTGTTCAAGCGCCATCTAC,0.804
17,GATGATTGTTCTCCCAGCTGATGAATTTTTGTCTTCGAGTAAACAAATTTTCCTAATCTTTCTGTTCAAGCGCCATCTAC,0.505
18,GATGATTGTTCTCCCAGCTGATGAATTTGGGTCTTCGAGTAAACAAATTTTCCTAATCTTTCTGTTCAAGCGCCATCTAC,0.715
